Test results as given in PubChem BioAssay AID1508624 (National Center for Advancing Translational Sciences (NCATS), 2021).
Among all 48,000 compounds or so, about 120 (0.25%) were called active. Roughly 4% stayed inconclusive and do not appear here. The call rests on the fitted dose curve; in most records, active means well fitted activation curve with a large enough effect; inconclusive means small, poorly fitted or top-dose-only effect, or another doubt; inactive means no such curve, though single readings can be large or run the other way. The list shows a part of the results.

Test: Primary qHTS for Identification of Small Molecule Activators of Huntingtin-Antisense Promoter Activity; further: nearly all actives have a fitted effect of over 55% in size
Settings: HEK293 HTT-AS promoter firefly luciferase reporter (activity 0% = vehicle and -100% = no light), 24 h; series mostly up to 57.5 µM; activity change, positive = activation: at the top concentration
Procedure, shortened: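 Firefly luciferase signal from promoter-reporter HEK293 cells was scaled between vehicle (0%) and zero RLU (-100%). Compounds were tested at final concentrations of up to 57.5 uM over 24 h at 37 degrees C. PTC124 at 50 uM final served as control inhibitor.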

Activity change, positive = activation, inactive:
CCCC(=O)N(c1ccc2oc(C)c(C(C)=O)c2c1)S(=O)(=O)c1ccc(CC)cc1 -54.4%
Cc1cccc(C(=O)Nc2ccc(S(=O)(=O)N3CCC(c4nc5ccccc5s4)CC3)cc2)c1 -25.9%
COCCCNC(=O)c1cc2cc(S(=O)(=O)N3CCCCC3)ccc2n1C -31.9%
CC[C@H]1OC(=O)[C@H](C)[C@@H](O[C@H]2C[C@@](C)(OC)[C@@H](O)[C@H](C)O2)[C@H](C)[C@@H](O[C@@H]2O[C@@H](C)C[C@H](N(C)C)[C@@H]2O)[C@](C)(O)C[C@@H](C)C(=O)[C@H](C)[C@@H](O)[C@]1(C)O -12%
C=Cc1ccc(Cn2c(C(=O)O)c(CNCc3ccc(F)cc3)c3ccc(C)cc32)cc1 -69.4%
Cc1cc(C)c(NC(=O)CSc2ncc3c(n2)-c2cc(Cl)ccc2N(C)S3(=O)=O)c(C)c1 -10.5%
CCC(C)(C)NC(=O)C1CCN(S(=O)(=O)c2ccc3c(c2)CCCN3C(C)=O)CC1 -19.1%
COc1cc2ccccc2cc1C(=O)Nc1cccc(-c2nc3cc(C)c(C)cc3o2)c1 -74.4%
COC(=O)c1c(NC(=O)c2ccc(S(=O)(=O)N3CCC(C)CC3)cc2)sc2c1CCN(C)C2 -35.9%
CN(C(=O)CSc1nnc(NC(=O)Nc2ccccc2)s1)c1ccccc1 -34.9%
Brc1cccc(-c2nnn3c2nc(NCc2ccc4c(c2)OCO4)c2ccccc23)c1 18.2%
O=C(NCC(c1cccnc1)N1CCc2ccccc21)c1cccc(Br)c1 (centres undefined) -27.1%
CC(C)NC(=O)C1CCC(Cn2c(=O)c3sccc3n(Cc3ccc(F)cc3)c2=O)CC1 (centres undefined) -15.5%
COc1ccc(-n2ncc(C(=O)NCc3ccco3)c2C2CCN(C(=O)OC(C)(C)C)CC2)cc1 -3.82%
Cc1cc(C)cc(NC(=O)N2CCC(C(N)=O)(N3CCCCC3)CC2)c1 3.5%
COc1ccc(N(C)C(=O)c2nn(-c3ccc(C)cc3)c(=O)n(C)c2=O)c(OC)c1 -6.97%
CCOC(=O)N1CCC(NC(=O)c2cnn(-c3ccc(F)cc3)c2-n2cccc2)CC1 -10.2%
CCN(CC)c1cc(C)c2cc(NC(=O)/C=C/c3ccccc3Cl)ccc2n1 -6.32%
COc1ccc(N2CC(NC(=O)C(=O)c3c[nH]c4ccccc34)CC2=O)cc1 (centres undefined) -11.6%
COc1ccc(CNC(=O)CC(C)n2nc(C)cc2C)cc1 (centres undefined) -4.19%
Cc1ccc(-c2nn(-c3ccc(F)cc3F)c3c2cnc2ccc(F)cc23)cc1 -0.81%
O=C(CSc1ncc2c(n1)-c1cc(Cl)ccc1N(Cc1ccccc1)S2(=O)=O)Nc1ccc(F)cc1F -25.3%
O=C(CCSCc1cccc(Cl)c1)NCc1ccccc1Cl -8.19%
CC(C)Oc1ccc(C(=O)N2CCN(c3nc4c(F)cc(F)cc4s3)CC2)cc1 -0.0419%
